From PubChem BioAssay (NCATS)
“And” between values parts separate entries of the source, which are not always exact repeats. Equal values may be shown once. Inconclusive results, whose numbers are uncertain, are shown with a selection of clear calls. Where the call is inconclusive, the potency comes from a doubtful curve fit. The source made the active and inactive calls. Calls follow the shape of the dose curve; as a rule, active = well fitted curve in the direction sought with a large enough effect; inconclusive = small, poorly fitted or top-dose-only effect, or another doubt; inactive = no such curve, though single readings can be large; an effect the other way counts as inactive or inconclusive.

Assay: qHTS of pediatric cancer cell lines to identify multiple opportunities for drug repurposing: Primary screen for Rh30 cells (AID 1347107); also: nearly all actives have a fitted effect of over 75% in size; as to activity change, negative = cytotoxic: % is scaled to controls: 0 for no effect and ±100 for the full control effect
Settings: Rh30 rhabdomyosarcoma viability, CellTiter-Glo luminescence, 48 h; series mostly up to 46 µM; activity change, negative = cytotoxic: at the top concentration
How it was run: (§1)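 Viability after 48 h compound treatment at 37C, 500-1,000 cells/well, read as ATP luminescence with CellTiter-Glo. Primary screens used 11-point (MIPE, 0.78 nM-46 µM) or 8-point (NPC, 0.59 nM-46 µM) final concentrations; follow-up screens used 11-point dilutions.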
Potency is read from the fitted curve at half-maximal effect; tags tell the direction and shape of the fitted curve.

Question: Which “activity change, negative = cytotoxic” value does the source give for CC(O)=C(C#N)C(=O)Nc1cc(Br)ccc1Br here?
Answer: inactive: 9.67%

Question: With O=c1oc2ccccc2c(O)c1Cc1c(O)c2ccccc2oc1=O as the molecule, how does the “activity change, negative = cytotoxic” value read?
Answer: inactive: 13.2%

Question: For C[C@](O)(CS(=O)(=O)c1ccc(F)cc1)C(=O)Nc1ccc(C#N)c(C(F)(F)F)c1, which Potency is on record?
Answer: inconclusive: 2.96 µM [cytotoxic, full curve]

Question: Which “activity change, negative = cytotoxic” value does the source give for Nc1ccccc1C(=O)OCC(O)CO (stereo not drawn) here?
Answer: inactive: 30%

Question: With C=C[C@@H]1CN2CCC1C[C@H]2[C@H](O)c1ccnc2ccccc12 (stereo partly drawn) as the molecule, how does the Potency read?
Answer: inconclusive: 14.8 µM [cytotoxic, partial curve]

Question: With C#C[C@]1(O)C=C[C@@H]2[C@@H]3CCC4=CC(=O)CC[C@@H]4[C@H]3CC[C@@]21CC as the molecule, how does the “activity change, negative = cytotoxic” value read?
Answer: inactive: 18%

Question: Which “activity change, negative = cytotoxic” value does the source give for NC(=O)CN1CCCC1=O here?
Answer: inactive: 21.7%

Question: With CCS(=O)(=O)C(C)(C)S(=O)(=O)CC as the molecule, how does the “activity change, negative = cytotoxic” value read?
Answer: inactive: 4.61%

Question: With CC1=C2C[C@@H]3[C@@H](CC=C4C[C@@H](O)CC[C@@]43C)[C@@H]2CC[C@]12O[C@H]1C[C@H](C)CN[C@H]1[C@H]2C as the molecule, how does the Potency read?
Answer: inconclusive: 14.8 µM [cytotoxic, partial curve]

Question: For CC(C(=O)c1ccccc1)N(C)C (stereo not drawn), which “activity change, negative = cytotoxic” value is on record?
Answer: inactive: 17.2%

Question: Which “activity change, negative = cytotoxic” value does the source give for COc1cc(CCN)cc(OC)c1OC here?
Answer: inactive: -2.55% [at 92.7 µM]

Question: With NC(=O)OCCCc1ccccc1 as the molecule, how does the “activity change, negative = cytotoxic” value read?
Answer: inactive: 21%

Question: For CCN(CC)C(=O)N[C@@H]1C=C2c3cccc4[nH]cc(c34)C[C@@H]2N(C)C1, which “activity change, negative = cytotoxic” value is on record?
Answer: inactive: 10.3%

Question: For COC[C@H]1OC(=O)c2coc3c2[C@@]1(C)C1=C(C3=O)[C@@H]2CC[C@H](O)[C@@]2(C)C[C@@H]1OC(C)=O, which Potency is on record?
Answer: inconclusive: 11.8 µM [cytotoxic, partial curve]

Question: Which Potency does the source give for CCOC(=O)c1cncn1[C@H](C)c1ccccc1 here?
Answer: inconclusive: 18.7 µM [cytotoxic, partial curve, poor fit]

Question: For CNC(C)(C)Cc1ccccc1, which “activity change, negative = cytotoxic” value is on record?
Answer: inactive: 13.2%

Question: For Cc1ccc([N+](=O)[O-])[c]2c1[O][Hg]2, which Potency is on record?
Answer: active: 2.11 µM

Assay: qHTS of pediatric cancer cell lines to identify multiple opportunities for drug repurposing: Primary screen for Rh41 cells (AID 1347108); also: nearly all actives have a fitted effect of over 70% in size;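 as to activity change, negative = cytotoxic: luminescence drop marks cytotoxic hits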
Settings: Rh41 rhabdomyosarcoma viability, CellTiter-Glo luminescence, 48 h; series mostly up to 46 µM; activity change, negative = cytotoxic: at the top concentration
How it was run: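 500-1,000 cells/well; 5 h pre-incubation 37 °C/5% CO2; compound pinned; 48 h; CellTiter-Glo, 15 min RT; luminescence. MIPE 11-pt from 0.78 nM, NPC 8-pt from 0.59 nM final. Bortezomib 2.3 µM final as positive control.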

Question: For CCCCCCCCCCCCCCCC[N+](C)(C)C, which Potency is on record?
Answer: inconclusive: 18.8 µM [cytotoxic, partial curve]

Question: Which Potency does the source give for CO[C@H]1CCC(O[C@H]2C[C@H]([C@]3(C)CC[C@]4(C[C@H](O)[C@@H](C)[C@@H]([C@@H](C)C=C(C)C(=O)[C@H](C)C[C@H](C)C(=O)O)O4)O3)O[C@]3(O[C@@H]([C@H]4O[C@@](O)(CO)[C@H](C)C[C@H]4C)C[C@H]3C)[C@H]2C)O[C@H]1C (stereo partly drawn) here?
Answer: active: 1.87 µM

Question: Which Potency does the source give for C[C@@H]1O[C@@H](O[C@@H]2C=C3CC[C@@H]4[C@@H](CC[C@]5(C)[C@H](c6ccc(=O)oc6)CC[C@@]45O)[C@@]3(C)CC2)[C@H](O)[C@H](O)[C@H]1O here?
Answer: active: 0.0235 µM

Question: For CC(O)=C(C#N)C(=O)Nc1cc(Br)ccc1Br, which Potency is on record?
Answer: inconclusive: 6.62 µM [cytotoxic, partial curve]

Question: With C=C[C@@H]1CN2CCC1C[C@H]2[C@H](O)c1ccnc2ccccc12 (stereo partly drawn) as the molecule, how does the Potency read?
Answer: inconclusive: 18.7 µM [cytotoxic, partial curve]

Question: For NC(=O)CN1CCCC1=O, which “activity change, negative = cytotoxic” value is on record?
Answer: inactive: 24.3%

Question: With C[C@@H]1O[C@@H](O[C@H]2C[C@@H](O)[C@]3(CO)[C@H]4[C@H](O)C[C@]5(C)[C@@H](C6=CC(=O)OC6)CC[C@]5(O)[C@@H]4CC[C@]3(O)C2)[C@H](O)[C@H](O)[C@H]1O as the molecule, how does the Potency read?
Answer: inconclusive: 26.4 nM [cytotoxic, full curve] and inconclusive: 75 nM [cytotoxic, full curve]

Question: With CC1=C2C[C@@H]3[C@@H](CC=C4C[C@@H](O)CC[C@@]43C)[C@@H]2CC[C@]12O[C@H]1C[C@H](C)CN[C@H]1[C@H]2C as the molecule, how does the Potency read?
Answer: inconclusive: 16.6 µM [cytotoxic, partial curve]

Question: With COc1cc(CCN)cc(OC)c1OC as the molecule, how does the Potency read?
Answer: inconclusive: 29.6 µM [cytotoxic, partial curve, poor fit]

Question: With CN(C)NC(=O)CCC(=O)O as the molecule, how does the Potency read?
Answer: inconclusive: 7.43 µM [cytotoxic, partial curve]

Question: For NC(=O)OCCCc1ccccc1, which “activity change, negative = cytotoxic” value is on record?
Answer: inactive: 34.6%

Question: For CCN(CC)C(=O)N[C@@H]1C=C2c3cccc4[nH]cc(c34)C[C@@H]2N(C)C1, which “activity change, negative = cytotoxic” value is on record?
Answer: inactive: 20.3%

Question: Which “activity change, negative = cytotoxic” value does the source give for CCOC(=O)c1cncn1[C@H](C)c1ccccc1 here?
Answer: inactive: 27.9%

Assay: qHTS of pediatric cancer cell lines to identify multiple opportunities for drug repurposing: Confirmatory screen for NB1643 cells (AID 1347109); also: nearly all actives have a fitted effect of over 45% in size;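 as to activity change, negative = cytotoxic: plate controls were DMSO for no effect and bortezomib for full effect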
Settings: NB1643 neuroblastoma cell viability; activity change, negative = cytotoxic: at 45.9 µM (top of the series) unless noted
How it was run: as §1

Question: For ClC1=C(Cl)C2(Cl)C(CBr)CC1(Cl)C2(Cl)Cl (stereo not drawn), which “activity change, negative = cytotoxic” value is on record?
Answer: inactive: 7.11%

Question: With O=P1(N(CCCl)CCCl)NCCCO1 (stereo not drawn) as the molecule, how does the Potency read?
Answer: inconclusive: 11.7 µM [cytotoxic, partial curve]

Question: For C[C@](O)(CS(=O)(=O)c1ccc(F)cc1)C(=O)Nc1ccc(C#N)c(C(F)(F)F)c1, which “activity change, negative = cytotoxic” value is on record?
Answer: inactive: 9.7%

Question: For C[C@@H]1O[C@@H](O[C@H]2C[C@@H](O)[C@]3(CO)[C@H]4[C@H](O)C[C@]5(C)[C@@H](C6=CC(=O)OC6)CC[C@]5(O)[C@@H]4CC[C@]3(O)C2)[C@H](O)[C@H](O)[C@H]1O, which Potency is on record?
Answer: active: 369 nM and active: 585 nM

Question: Which Potency does the source give for Cc1ccc([N+](=O)[O-])[c]2c1[O][Hg]2 here?
Answer: active: 0.737 µM

Assay: qHTS of pediatric cancer cell lines to identify multiple opportunities for drug repurposing: Confirmatory screen for SK-N-MC cells (AID 1347111);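 also: cells exposed to compound for 48 h before the readout; nearly all actives have a fitted effect of over 70% in size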;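 as to activity change, negative = cytotoxic: plate controls were DMSO for no effect and bortezomib for full effect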
Settings: SK-N-MC cell viability; series mostly up to 45.9 µM; activity change, negative = cytotoxic: at the top concentration
How it was run: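 SK-N-MC cells at 500-1,000 cells/well in growth media were pre-incubated 5 h, then exposed to compounds at 11-point dilutions for 48 h at 37 degrees C, 5% CO2. Viability was read as CellTiter-Glo luminescence.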

Question: For O=P1(N(CCCl)CCCl)NCCCO1 (stereo not drawn), which “activity change, negative = cytotoxic” value is on record?
Answer: inactive: -2.53%

Question: For CO[C@H]1CCC(O[C@H]2C[C@H]([C@]3(C)CC[C@]4(C[C@H](O)[C@@H](C)[C@@H]([C@@H](C)C=C(C)C(=O)[C@H](C)C[C@H](C)C(=O)O)O4)O3)O[C@]3(O[C@@H]([C@H]4O[C@@](O)(CO)[C@H](C)C[C@H]4C)C[C@H]3C)[C@H]2C)O[C@H]1C (stereo partly drawn), which Potency is on record?
Answer: inconclusive: 2.61 µM [cytotoxic, full curve, poor fit]

Question: With C[C@](O)(CS(=O)(=O)c1ccc(F)cc1)C(=O)Nc1ccc(C#N)c(C(F)(F)F)c1 as the molecule, how does the “activity change, negative = cytotoxic” value read?
Answer: inactive: -86.8%
